From ChEMBL document CHEMBL4888484, “Replenishing the malaria drug discovery pipeline: Screening and hit evaluation of the MMV Hit Generation Library 1 (HGL1) against asexual blood stage Plasmodium falciparum ,using a nano luciferase reporter read-out” (2022) come the findings set out here.

Screen size: about 150,000 compounds; about 540 (0.36%) showed an effect of 50% or more. Some of the results follow.

The subject of the test is Plasmodium falciparum. In words: Primary screen in NF54 nanoGlo assay, in single point, at 2uM, 72h; a lower Z score goes with more inhibition. Type of test: functional, Erythrocyte. The settings on record: timepoint 72 hour.
By % Inhibition is commonly meant the change of the read-out against control, counted positive when it falls. For the compound `COc1ccc(N2CCN(C(=O)c3cn(Cc4ccccc4)nc3OCc3ccccc3)CC2)cc1`, the “% Inhibition” value is recorded as -2% and the Z score was found to be 0.2.

Turning to `c1ccc(-c2nc(-c3ccc4ccccc4c3)cs2)cc1`, the “% Inhibition” value was -5% and the Z score came to 0.67.

For the compound `COc1ccc(CC(=O)N2CCOC3CCCC32)cc1OC` (stereo not given), the “% Inhibition” value is 8% and the Z score is -1.41.

Take `CC1CCN(C(=O)NC2CC(C)n3ccnc32)CC1n1ccnc1` (stereo not given): the “% Inhibition” value was determined as 12% and the Z score is -1.4.

With `OC1CCN(CCn2ccnc2-c2cccc3c2oc2ccccc23)CC1`, the “% Inhibition” value is -7% and the Z score worked out at 1.29.

Turning to `CC(C)C(=O)N1CC[C@H](Nc2nccn3cnnc23)C1`, the “% Inhibition” value is recorded as -9% and the Z score stood at 0.97.

On to `CN(CC(C)(C)CO)c1nccc(C2CCCC2)n1`, for which the “% Inhibition” value was -8% and the Z score was 1.24.

Regarding `CC(C)c1ccc(CNc2nc3ccncc3n(Cc3ccccc3)c2=O)cc1`, the “% Inhibition” value is recorded as 19% and the Z score is recorded as -1.87.

As for `Cc1nc(CN2CC(=O)N(C)[C@@H](C)C2)co1`, the “% Inhibition” value was -5% and the Z score is given as 0.48.

For the compound `CCS(=O)(=O)Nc1ccc(C)n(CC(=O)NCc2ccccc2Br)c1=O`, the “% Inhibition” value is on record as -10% and the Z score is given as 1.34.

In the case of `Cc1n[nH]cc1NC(=O)C(=O)c1ccc2c(c1)OCCO2`, the “% Inhibition” value is listed as -3% and the Z score was determined as 0.48.

As for `CNC(=O)[C@@H]1CCCN1c1ncnc2c1cnn2-c1ccccc1`, the “% Inhibition” value is on record as -16% and the Z score is reported as 1.65.

Regarding `CC(=O)N1CCC(CNC(=O)OCc2ccccc2)CC1`, the “% Inhibition” value is on record as -2% and the Z score is 0.14.

Consider `O=C(CN1CCCCC1)N1CCc2sccc2C1`, for which the “% Inhibition” value was -1% and the Z score was determined as 0.13.

With `CNC(=O)c1n[nH]c2c1[C@@H](CCn1nc(C)cc1C)CC(=O)N2`, the “% Inhibition” value is given as -6% and the Z score worked out at 1.03.

In the case of `Cc1c(-c2n[nH]c(=O)n2[C@@H](C)c2ccc(Cl)cc2)cnn1C`, the “% Inhibition” value is -6% and the Z score stood at 1.17.

In the case of `COCCNc1nc(N2CCCCCC2)c2cnn(-c3ccccc3)c2n1`, the “% Inhibition” value turned out to be 0% and the Z score was found to be 0.03.

Regarding `CN(C)c1ccc(-c2ccnc(N[C@H]3CO[C@H]4[C@@H]3OC[C@@H]4NC(=O)C3CCCCC3)n2)cc1`, the “% Inhibition” value is listed as 2% and the Z score was -0.3.

For `COCc1cn([C@@H]2CC[C@H]3CCOc4ccccc4C(=O)N4CCN(Cc5ccc(F)c(F)c5)C[C@H]4C(=O)NC[C@H]2O3)nn1`, the “% Inhibition” value is 15% and the Z score is -1.79.

`CC(C)Oc1ccc(S(=O)(=O)Nc2cnsc2)cc1`: the “% Inhibition” value is reported as -5% and the Z score came out at 0.61.

As for `CC(C)S(=O)(=O)[C@@H](C)C(=O)Nc1cc[nH]n1`, the “% Inhibition” value amounted to 5% and the Z score is -0.99.

Consider `CC(C)c1cc(NC(=O)NC2CC3CCC2O3)no1` (stereo not given), for which the “% Inhibition” value is reported as -2% and the Z score stood at 0.38.

Regarding `Cc1nc(N2CCCC2)nc(C)c1NC(=O)c1ccc2c(c1)OCO2`, the “% Inhibition” value was -4% and the Z score is reported as 0.62.

On to `CC(C)c1nn(C)c2sc(C(=O)N[C@@H](C)C(=O)N3CCCCC3)cc12`, for which the “% Inhibition” value is on record as 2% and the Z score is -0.31.

Regarding `CCN1C(=O)c2cc(NC(=O)c3ccc(OC(C)C)cc3)ccc2Oc2ccccc21`, the “% Inhibition” value is reported as -24% and the Z score turned out to be 2.82.

As to `Cc1nn(C(=O)c2ccco2)c2c1[C@H]1[C@@H](C2)C1(C)C`, the “% Inhibition” value is listed as -10% and the Z score was 1.24.

Consider `O=C(c1cnc(NCc2nccc(C(F)F)n2)c(Cl)c1)N1CCOCC1`, for which the “% Inhibition” value is -8% and the Z score was determined as 1.43.

In the case of `CC(=O)N(Cc1cccc(OS(=O)(=O)c2c(C)cccc2Cl)c1)CC1CC1`, the “% Inhibition” value came out at 3% and the Z score is -0.46.

Regarding `CCC(NC1COC2(CCC2)C1)C(c1ccc(C)cc1)n1cncn1` (stereo not given), the “% Inhibition” value came to 5% and the Z score is -0.97.

Regarding `Cc1cnc([C@@H](NS(=O)(=O)c2ccc(OCC(F)F)cc2)C2CC2)s1`, the “% Inhibition” value is reported as -5% and the Z score was 0.55.

In the case of `O=C(O)CCc1cc2n(n1)CCCN(Cc1ccc([C@@H]3CCCO3)s1)C2`, the “% Inhibition” value is -9% and the Z score is recorded as 1.7.

As for `CN(Cc1ccc(N2CCOCC2)cc1)C[C@H](O)c1cccc(F)c1`, the “% Inhibition” value came to 3% and the Z score was -0.38.

For the compound `COc1ccccc1CNC(=O)N1CCN2CCC[C@H]2C1`, the “% Inhibition” value was -9% and the Z score was found to be 1.1.

Turning to `CC1CCCC(NC(=O)C2(C)CCCO2)C1` (stereo not given), the “% Inhibition” value amounted to 1% and the Z score was -0.2.

On to `Fc1ccc(N2CCC(CN3CCOCC3)CC2)nc1`, for which the “% Inhibition” value is on record as -15% and the Z score came out at 1.97.

Take `O=C(NCc1cn(-c2ccncc2)nn1)c1ccc2c(c1)OCO2`: the “% Inhibition” value stood at 13% and the Z score is -1.75.

As to `NC(=O)C1CCN(C(=O)CC2CC3CCC2C3)CC1` (stereo not given), the “% Inhibition” value was -1% and the Z score came to 0.07.

For `CCc1nocc1CN1CCNCc2ccccc21`, the “% Inhibition” value is reported as -7% and the Z score worked out at 1.3.

Regarding `CCn1ccnc1CN(Cc1ccsc1)CC(C)C`, the “% Inhibition” value was found to be 5% and the Z score was -1.01.

Regarding `C[C@@H](C(=O)N1CCn2nc(Cc3ccccc3)cc2C1)n1cncn1`, the “% Inhibition” value is -7% and the Z score was 1.

Regarding `CC1(C)CN(C(=O)CCc2cccnc2)C[C@]1(C)O`, the “% Inhibition” value was -5% and the Z score worked out at 0.59.

Take `CN(C)S(=O)(=O)c1cccc(NC(=O)Cc2cn(-c3ccccc3)nc2-c2ccc(Cl)cc2)c1`: the “% Inhibition” value worked out at 26% and the Z score is listed as -2.96.

As for `CCOC(=O)C(F)(F)[C@@H](NCC(=O)OC)C1CC1`, the “% Inhibition” value stood at 39% and the Z score was -5.6.

On to `COCC(=O)N1CCN(C(=O)c2ccc(Cc3ccccc3)[nH]2)CC1`, for which the “% Inhibition” value is -9% and the Z score worked out at 1.3.

For the compound `Cc1ccc2c(c1)cc(C(=O)N1C[C@H](C(=O)O)[C@@H](C3CC3)C1)n2C`, the “% Inhibition” value is recorded as -14% and the Z score worked out at 1.99.

As to `Cc1cc(N2CC[C@H]3[C@H](CCC(=O)N3CCCO)C2)nc2ccccc12`, the “% Inhibition” value is -10% and the Z score is 1.83.

In the case of `COc1nc(N[C@H]2CCCN(C)C2)ncc1F`, the “% Inhibition” value was 3% and the Z score is -0.5.

With `O=C1CCCC[C@@](Cc2ccccc2)(C(=O)NCc2ccc(Cl)cc2)N1`, the “% Inhibition” value is listed as -7% and the Z score stood at 0.8.

Consider `c1ccc2nc(NCCc3cn([C@H]4CCOC4)nn3)cnc2c1`, for which the “% Inhibition” value is -7% and the Z score stood at 0.84.

As to `CN1CCN(c2ccc(C(=O)O)s2)c2ccccc21`, the “% Inhibition” value is recorded as -5% and the Z score was 1.03.

As for `CC[C@H](O)Cn1nc(Cc2ccccc2OC)nc1-c1ccc(C)n1C`, the “% Inhibition” value is recorded as -3% and the Z score is reported as 0.62.

Take `CCCn1nc(C2CC2)nc1[C@H](C)Oc1cccc(Cl)c1`: the “% Inhibition” value is listed as -12% and the Z score was 1.14.

As for `Cc1ccc2c(c1C)OC1(CCN([C@@H](C)C(=O)N3CCCC3)CC1)CC2=O`, the “% Inhibition” value amounted to 4% and the Z score is recorded as -0.51.

For `C[C@H](O)c1cnc(CN(C)C(C2CC2)C2CC2)s1`, the “% Inhibition” value is given as -3% and the Z score is given as 0.65.

Regarding `Cc1nc(C)c(CC(=O)N[C@@H]2COC3(CCCC3)C2)c(=O)[nH]1`, the “% Inhibition” value is listed as 11% and the Z score is recorded as -1.46.
